Laboratory results reported in the supplement of paper PMC10126150.
Sequences with one replicate were seen in a single cluster, so their values are uncertain.

Tested on: ATP
Experiment: switch fluorescence ratio, 500 uM ATP over buffer (Cy3 cluster intensity, sum of 5 cycles each) (fold (ratio)); higher = stronger signal-on switching upon ATP binding; sequences stand for … in TCGTCGGCAGCGTCAGATGTGTATAAGAGACAGTTTTTTTTTTTTTTTTTTTTTTTTT…TC
Settings: aptamer strand: ATP DNA aptamer (quencher-CACCTGGGGGAGTATTGCGGAGGAAGG + anchor), 100 nM annealed; ATP concentration: 500 uM; one replicate
Outline: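 Cy3-labelled switching-strand clusters on a modified Illumina MiSeq flow-cell were annealed to 100 nM quencher-labelled ATP aptamer, imaged in selection buffer, then imaged after 15 min with 500 uM ATP at 22 °C. Five buffer/ATP cycles ran, with NaOH stripping and re-annealing between them. The fluorescence ratio is summed target-cycle over summed buffer-cycle Cy3 intensity per cluster, averaged per switch-domain sequence. Clusters outside 100-1000 RFU were excluded.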
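Also: ATP exposure 15 min at 22 °C before imaging.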

| Sequence | switch fluorescence ratio |
| --- | --- |
| GGTTGACTAA | 0.982 |
| CCATGTCCGC | 1.67 |
| TCTCTAATAT | 1.04 |
| TTCGCTCATT | 0.947 |
| TAATCTATCT | 0.978 |
| CGGCGCTAGA | 1.07 |
| AAACGGCAAG | 1.08 |
| GACCCCGTGG | 1.02 |
| ATAAAGTCGA | 0.949 |
| CGCCAATGC | 1.6 |
| AATGACGAAG | 0.931 |
| CTGTCTGCTC | 1.05 |
| CTATTTTATA | 1 |
| AGCCTCCGAA | 4.17 |
| CGCTGTACAC | 1.46 |
| AGCGGCAGGC | 0.96 |
| GGGACAACTC | 1.05 |
| CGGACTTGAT | 0.988 |
| GAGTCATCTG | 0.979 |
| CGATATTGGA | 0.987 |
| TATTGGTACT | 1.04 |
| TCAAAGGCAC | 1.48 |
| ACCCTGTATG | 0.989 |

| Sequence | switch fluorescence ratio |
| --- | --- |
| TGAATAAAGA | 1.01 |
| ATTCTCAACT | 1.01 |
| CAGACGGAGG | 0.986 |
| TTCACTGAGG | 1.04 |
| ATTACCTAAA | 1.02 |
| GTATTATTGT | 1.05 |
| TTAAGAAGTA | 0.968 |
| GGCTCGGACA | 1 |
| CTGATCTGCT | 1.01 |
| CGGTGATGGC | 0.956 |
| TTGCGGTATC | 1.02 |
| TACGGGACCA | 1.24 |
| ATGAGGTAAG | 0.998 |
| GCAGTTAAA | 0.987 |
| CCACCGAGAT | 3.24 |
| GAAATATTGA | 1.05 |
| GGTTCCTACG | 1.9 |
| ATGACAGCAG | 1.08 |
| ACAGGTAAAT | 1 |
| ACAGGTACGG | 1.09 |
| CTAATCCTGG | 1.02 |
| ATTAGCAATT | 1.37 |
| GCTCAGCATA | 1.98 |

| Sequence | switch fluorescence ratio |
| --- | --- |
| GCCGAGGTAC | 1.18 |
| GCGTTTCAAG | 0.972 |
| CCCGTCAAGT | 1.35 |
| TTACGATTAA | 1.02 |
| ATACCAAACA | 1.29 |
| TCGCAGGGCT | 1.11 |
| TGAGGGCATG | 0.924 |
| GTTCCTCATC | 1.12 |
| CTCTTTTGGA | 1.02 |
| GCAAGTGTG | 1.33 |
| CAGCTATGTC | 1.09 |
| GTAATATGAT | 0.987 |
| CCAGGGCGCC | 0.98 |
| CGCCCTCGAA | 0.984 |
| GTTTCTCGGG | 1.01 |
| GGTGTAAAGC | 0.989 |
| TCTACACTTA | 1.04 |
| CTAATTTGTT | 0.984 |
| TATTTCAATT | 0.961 |
| TAAGTCTGCT | 0.988 |
| CTGGCTTGCA | 1.04 |
| TATCGAAGCC | 1.05 |
| ACTTATTTGT | 0.984 |

| Sequence | switch fluorescence ratio |
| --- | --- |
| GTAATAACGC | 1 |
| CGTTAGGGAT | 1.02 |
| GATAGTATCG | 0.953 |
| TATTGGTGCG | 0.958 |
| GGGGGAACTC | 1.02 |
| ATGAAATATG | 1.06 |
| CACACCTCTC | 1.07 |
| ACAGACTCTG | 0.996 |
| TGAGGGCAAT | 1.92 |
| AAGGCCTAGT | 0.982 |
| CAGATTCCGC | 1.34 |
| TGTTAAGGAC | 1.01 |
| CACTCTGACC | 1.11 |
| AGTTCGATAA | 1 |
| TAGCGGCCG | 1.03 |
| AGGTAGTGTT | 1.06 |
| CATTGTAAAC | 1.03 |
| GGATAAGCAC | 1.26 |
| CCGAACTAGA | 1.38 |
| GCTTGCTTAC | 1.22 |
| TTGGTTCGGT | 1.02 |
| ACTTCCTCTT | 1.89 |
| ATCGAATGGA | 1.11 |

| Sequence | switch fluorescence ratio |
| --- | --- |
| GGGCTCTAAT | 0.998 |
| TAAAGCCACG | 1.05 |
| TGGGGCATGG | 0.987 |
| ACGGATACCG | 0.965 |
| CAACCTAGCG | 1.01 |
| TTGTGATCAC | 1.01 |
| GCCAATTTCA | 1 |
| ACTTGGGTGC | 1.1 |
| ACGTAGGGCA | 1.04 |
| ATGCAGGCGT | 0.965 |
| GGAAGATCCG | 0.963 |
| GCCGGATGTT | 0.961 |
| TTTGGATCAA | 0.995 |
| TATTAACAGG | 1.02 |
| ATAGCTTAGT | 0.983 |
| AGTAGAGTGC | 0.978 |
| TCGCAGAAGG | 1.02 |
| CCCCGTCAGG | 1.05 |
| GAGAAACGTG | 1.01 |
| AGGCAGTAAT | 1 |
| GATTACCAGT | 0.963 |
| CGGATCTGTG | 0.983 |
| AAAGCTCAGA | 0.965 |

| Sequence | switch fluorescence ratio |
| --- | --- |
| GGTCAGCTCG | 0.969 |
| AGTACCGGT | 0.98 |
| TCGCAAACGA | 1.22 |
| AACGTGGGA | 1.01 |
| GGGTATTAGA | 0.986 |
| AGTTGTGAAT | 0.957 |
| GGAGCGATCA | 1.15 |
| CTGCCATAGA | 1.04 |
| TTCCACGAAA | 0.997 |
| ACACTTTATT | 1.05 |
| GAGGCTCTCT | 0.998 |
| GGATTCCATA | 1.03 |
| AATGTTATCG | 0.961 |
| TGAGGTGGT | 1 |
| TACTGGGTCA | 0.993 |
| TTAAGTTGGA | 0.971 |
| GAATTGCGAG | 0.938 |
| AGGGACCCAG | 1.04 |
| ACCTTGGAG | 0.994 |
| ATGGTGGAGT | 1.02 |
| AGTTTAGGAG | 1 |
| GATGGGGAAC | 0.969 |
| ACCGGTTTG | 1.01 |

| Sequence | switch fluorescence ratio |
| --- | --- |
| GGCTACATT | 0.985 |
| CACGGGGTAG | 0.993 |
| GAAAAGCGGG | 0.969 |
| AATTGGTAAG | 0.974 |
| CCCGGGCGCA | 1.13 |
| GGGGTTAGTA | 1.03 |
| TACGACTTAG | 1.02 |
| TAAATTTGG | 1.02 |
| TAAGCTGAAG | 1.03 |
| ACGTTAAGG | 1.11 |
| TAAGGGACAT | 1.01 |
| CAGGGGCGCC | 1.02 |
| CAGGGAAC | 0.984 |
| AAGATTAAGG | 0.911 |
| GCTGCTTATT | 1.03 |
| CGTAGGCACC | 0.984 |
| AGGTATTCGC | 0.992 |
| TGTTATTGAG | 0.989 |
| CGTACGCGAC | 3.39 |
